From the supplement of paper PMC12230231

Tested on: SIVsab (simian immunodeficiency virus of sabaeus monkeys), single-cycle GFP reporter, in CRFK cells
Assay: enrichment among uninfected cells over input (fold); higher = stronger restriction
Conditions: library: human / rhesus combinations
Protocol: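 Pools of CRFK cells expressing variants of the TRIM5α v1 loop were challenged with the single-cycle reporter, sorted by GFP and sequenced; mean of two replicates.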

| Sequence | enrichment |
| --- | --- |
| MASGILVNVKEEVTCPICLELLTQPLSLDCGHSFCQACLTANHKKSMLDKGESSCPVCRISYQPENIRPNRHVANIVEKLREVKLSPEGQKVDHCARHGEKLLLFCQEDGKVICWLCERSQEHRGHHTFLTEEVAREYQVKLQAALEMLRQKQQEAEELEADIREEKASWKTQIQYDKTNVLADFEQLRDILDWEESNELQNLEKEEEDILKSLTNSETEMVQQTQSLRELISDLEHRLQGSVMELLQGVDGVIKRTENVTLKKPETFPKNQRRVFRAPDLKGMLEVFRELTDVRRYWVDVTVAPNNISCAVISEDKRQVSSPKPQIIYGAPGTRYTFPSLVNFNYCTGILGSQSITSGKHYWEVDVSKKTAWILGVCAGFQPDAMCNIEKNENYQPKYGYWVIGLEEGVKCSAFQDSSFHTPSVPFIVPLSVIICPDRVGVFLDYEACTVSFFNITNHGFLIYKFSHCSFSQPVFPYLNPRKCGVPMTLCSPSS [human TRIM5α, 330-340 = GAPGTRYTFPSLV] | 0.163 ± 0.054 |
| MASGILVNVKEEVTCPICLELLTQPLSLDCGHSFCQACLTANHKKSMLDKGESSCPVCRISYQPENIRPNRHVANIVEKLREVKLSPEGQKVDHCARHGEKLLLFCQEDGKVICWLCERSQEHRGHHTFLTEEVAREYQVKLQAALEMLRQKQQEAEELEADIREEKASWKTQIQYDKTNVLADFEQLRDILDWEESNELQNLEKEEEDILKSLTNSETEMVQQTQSLRELISDLEHRLQGSVMELLQGVDGVIKRTENVTLKKPETFPKNQRRVFRAPDLKGMLEVFRELTDVRRYWVDVTVAPNNISCAVISEDKRQVSSPKPQIIYGARGTLFTFPSFTNFNYCTGILGSQSITSGKHYWEVDVSKKTAWILGVCAGFQPDAMCNIEKNENYQPKYGYWVIGLEEGVKCSAFQDSSFHTPSVPFIVPLSVIICPDRVGVFLDYEACTVSFFNITNHGFLIYKFSHCSFSQPVFPYLNPRKCGVPMTLCSPSS [human TRIM5α, 330-340 = GARGTLFTFPSFT] | 0.4 ± 0.089 |
| MASGILVNVKEEVTCPICLELLTQPLSLDCGHSFCQACLTANHKKSMLDKGESSCPVCRISYQPENIRPNRHVANIVEKLREVKLSPEGQKVDHCARHGEKLLLFCQEDGKVICWLCERSQEHRGHHTFLTEEVAREYQVKLQAALEMLRQKQQEAEELEADIREEKASWKTQIQYDKTNVLADFEQLRDILDWEESNELQNLEKEEEDILKSLTNSETEMVQQTQSLRELISDLEHRLQGSVMELLQGVDGVIKRTENVTLKKPETFPKNQRRVFRAPDLKGMLEVFRELTDVRRYWVDVTVAPNNISCAVISEDKRQVSSPKPQIIYQAPGTLFQSFVNFNYCTGILGSQSITSGKHYWEVDVSKKTAWILGVCAGFQPDAMCNIEKNENYQPKYGYWVIGLEEGVKCSAFQDSSFHTPSVPFIVPLSVIICPDRVGVFLDYEACTVSFFNITNHGFLIYKFSHCSFSQPVFPYLNPRKCGVPMTLCSPSS [human TRIM5α, 330-340 = QAPGTLFQSFV] | 0.261 ± 0.36 |
| MASGILVNVKEEVTCPICLELLTQPLSLDCGHSFCQACLTANHKKSMLDKGESSCPVCRISYQPENIRPNRHVANIVEKLREVKLSPEGQKVDHCARHGEKLLLFCQEDGKVICWLCERSQEHRGHHTFLTEEVAREYQVKLQAALEMLRQKQQEAEELEADIREEKASWKTQIQYDKTNVLADFEQLRDILDWEESNELQNLEKEEEDILKSLTNSETEMVQQTQSLRELISDLEHRLQGSVMELLQGVDGVIKRTENVTLKKPETFPKNQRRVFRAPDLKGMLEVFRELTDVRRYWVDVTVAPNNISCAVISEDKRQVSSPKPQIIYQAPGTLFTFQTFVNFNYCTGILGSQSITSGKHYWEVDVSKKTAWILGVCAGFQPDAMCNIEKNENYQPKYGYWVIGLEEGVKCSAFQDSSFHTPSVPFIVPLSVIICPDRVGVFLDYEACTVSFFNITNHGFLIYKFSHCSFSQPVFPYLNPRKCGVPMTLCSPSS [human TRIM5α, 330-340 = QAPGTLFTFQTFV] | 0.182 ± 0.03 |
| MASGILVNVKEEVTCPICLELLTQPLSLDCGHSFCQACLTANHKKSMLDKGESSCPVCRISYQPENIRPNRHVANIVEKLREVKLSPEGQKVDHCARHGEKLLLFCQEDGKVICWLCERSQEHRGHHTFLTEEVAREYQVKLQAALEMLRQKQQEAEELEADIREEKASWKTQIQYDKTNVLADFEQLRDILDWEESNELQNLEKEEEDILKSLTNSETEMVQQTQSLRELISDLEHRLQGSVMELLQGVDGVIKRTENVTLKKPETFPKNQRRVFRAPDLKGMLEVFRELTDVRRYWVDVTVAPNNISCAVISEDKRQVSSPKPQIIYGAPGTRYTFQSFTNFNYCTGILGSQSITSGKHYWEVDVSKKTAWILGVCAGFQPDAMCNIEKNENYQPKYGYWVIGLEEGVKCSAFQDSSFHTPSVPFIVPLSVIICPDRVGVFLDYEACTVSFFNITNHGFLIYKFSHCSFSQPVFPYLNPRKCGVPMTLCSPSS [human TRIM5α, 330-340 = GAPGTRYTFQSFT] | 0.199 ± 0.057 |
| MASGILVNVKEEVTCPICLELLTQPLSLDCGHSFCQACLTANHKKSMLDKGESSCPVCRISYQPENIRPNRHVANIVEKLREVKLSPEGQKVDHCARHGEKLLLFCQEDGKVICWLCERSQEHRGHHTFLTEEVAREYQVKLQAALEMLRQKQQEAEELEADIREEKASWKTQIQYDKTNVLADFEQLRDILDWEESNELQNLEKEEEDILKSLTNSETEMVQQTQSLRELISDLEHRLQGSVMELLQGVDGVIKRTENVTLKKPETFPKNQRRVFRAPDLKGMLEVFRELTDVRRYWVDVTVAPNNISCAVISEDKRQVSSPKPQIIYGAPGTLYTFQSFVNFNYCTGILGSQSITSGKHYWEVDVSKKTAWILGVCAGFQPDAMCNIEKNENYQPKYGYWVIGLEEGVKCSAFQDSSFHTPSVPFIVPLSVIICPDRVGVFLDYEACTVSFFNITNHGFLIYKFSHCSFSQPVFPYLNPRKCGVPMTLCSPSS [human TRIM5α, 330-340 = GAPGTLYTFQSFV] | 0.0585 ± 0.081 |

Same assay, conditions: library: insertions and deletions

| Sequence | enrichment |
| --- | --- |
| MASGILVNVKEEVTCPICLELLTQPLSLDCGHSFCQACLTANHKKSMLDKGESSCPVCRISYQPENIRPNRHVANIVEKLREVKLSPEGQKVDHCARHGEKLLLFCQEDGKVICWLCERSQEHRGHHTFLTEEVAREYQVKLQAALEMLRQKQQEAEELEADIREEKASWKTQIQYDKTNVLADFEQLRDILDWEESNELQNLEKEEEDILKSLTNSETEMVQQTQSLRELISDLEHRLQGSVMELLQGVDGVIKRTENVTLKKPETFPKNQRRVFRAPDLKGMLEVFRELTDVRRYWVDVTVAPNNISCAVISEDKRQVSSPKPQIIYGARGTRYQTFNFNYCTGILGSQSITSGKHYWEVDVSKKTAWILGVCAGFQPDAMCNIEKNENYQPKYGYWVIGLEEGVKCSAFQDSSFHTPSVPFIVPLSVIICPDRVGVFLDYEACTVSFFNITNHGFLIYKFSHCSFSQPVFPYLNPRKCGVPMTLCSPSS [human TRIM5α, 1-codon deletion at 340] | 0.987 ± 0.55 |
| MASGILVNVKEEVTCPICLELLTQPLSLDCGHSFCQACLTANHKKSMLDKGESSCPVCRISYQPENIRPNRHVANIVEKLREVKLSPEGQKVDHCARHGEKLLLFCQEDGKVICWLCERSQEHRGHHTFLTEEVAREYQVKLQAALEMLRQKQQEAEELEADIREEKASWKTQIQYDKTNVLADFEQLRDILDWEESNELQNLEKEEEDILKSLTNSETEMVQQTQSLRELISDLEHRLQGSVMELLQGVDGVIKRTENVTLKKPETFPKNQRRVFRAPDLKGMLEVFRELTDVRRYWVDVTVAPNNISCAVISEDKRQVSSPKKPQIIYGARGTRYQTFVNFNYCTGILGSQSITSGKHYWEVDVSKKTAWILGVCAGFQPDAMCNIEKNENYQPKYGYWVIGLEEGVKCSAFQDSSFHTPSVPFIVPLSVIICPDRVGVFLDYEACTVSFFNITNHGFLIYKFSHCSFSQPVFPYLNPRKCGVPMTLCSPSS [human TRIM5α, 1-codon duplication at 324] | 0.523 ± 0.39 |
| MASGILVNVKEEVTCPICLELLTQPLSLDCGHSFCQACLTANHKKSMLDKGESSCPVCRISYQPENIRPNRHVANIVEKLREVKLSPEGQKVDHCARHGEKLLLFCQEDGKVICWLCERSQEHRGHHTFLTEEVAREYQVKLQAALEMLRQKQQEAEELEADIREEKASWKTQIQYDKTNVLADFEQLRDILDWEESNELQNLEKEEEDILKSLTNSETEMVQQTQSLRELISDLEHRLQGSVMELLQGVDGVIKRTENVTLKKPETFPKNQRRVFRAPDLKGMLEVFRELTDVRRYWVDVTVAPNNISCAVISEDKRQVSSPKPQIIYGARGTRYYGARGTRYQTFVNFNYCTGILGSQSITSGKHYWEVDVSKKTAWILGVCAGFQPDAMCNIEKNENYQPKYGYWVIGLEEGVKCSAFQDSSFHTPSVPFIVPLSVIICPDRVGVFLDYEACTVSFFNITNHGFLIYKFSHCSFSQPVFPYLNPRKCGVPMTLCSPSS [human TRIM5α, 8-codon duplication at 329] | 0.473 ± 0.4 |
| MASGILVNVKEEVTCPICLELLTQPLSLDCGHSFCQACLTANHKKSMLDKGESSCPVCRISYQPENIRPNRHVANIVEKLREVKLSPEGQKVDHCARHGEKLLLFCQEDGKVICWLCERSQEHRGHHTFLTEEVAREYQVKLQAALEMLRQKQQEAEELEADIREEKASWKTQIQYDKTNVLADFEQLRDILDWEESNELQNLEKEEEDILKSLTNSETEMVQQTQSLRELISDLEHRLQGSVMELLQGVDGVIKRTENVTLKKPETFPKNQRRVFRAPDLKGMLEVFRELTDVRRYWVDVTVAPNNISCAVISEDKRQVSSPKPQIIYYGARGTRYQTFVNFNYCTGILGSQSITSGKHYWEVDVSKKTAWILGVCAGFQPDAMCNIEKNENYQPKYGYWVIGLEEGVKCSAFQDSSFHTPSVPFIVPLSVIICPDRVGVFLDYEACTVSFFNITNHGFLIYKFSHCSFSQPVFPYLNPRKCGVPMTLCSPSS [human TRIM5α, 1-codon duplication at 329] | 0.692 ± 0.26 |
| MASGILVNVKEEVTCPICLELLTQPLSLDCGHSFCQACLTANHKKSMLDKGESSCPVCRISYQPENIRPNRHVANIVEKLREVKLSPEGQKVDHCARHGEKLLLFCQEDGKVICWLCERSQEHRGHHTFLTEEVAREYQVKLQAALEMLRQKQQEAEELEADIREEKASWKTQIQYDKTNVLADFEQLRDILDWEESNELQNLEKEEEDILKSLTNSETEMVQQTQSLRELISDLEHRLQGSVMELLQGVDGVIKRTENVTLKKPETFPKNQRRVFRAPDLKGMLEVFRELTDVRRYWVDVTVAPNNISCAVISEDKRQVSSPKPQIIYGARGTRARGTRYQTFVNFNYCTGILGSQSITSGKHYWEVDVSKKTAWILGVCAGFQPDAMCNIEKNENYQPKYGYWVIGLEEGVKCSAFQDSSFHTPSVPFIVPLSVIICPDRVGVFLDYEACTVSFFNITNHGFLIYKFSHCSFSQPVFPYLNPRKCGVPMTLCSPSS [human TRIM5α, 5-codon duplication at 331] | 1.37 ± 0.55 |
| MASGILVNVKEEVTCPICLELLTQPLSLDCGHSFCQACLTANHKKSMLDKGESSCPVCRISYQPENIRPNRHVANIVEKLREVKLSPEGQKVDHCARHGEKLLLFCQEDGKVICWLCERSQEHRGHHTFLTEEVAREYQVKLQAALEMLRQKQQEAEELEADIREEKASWKTQIQYDKTNVLADFEQLRDILDWEESNELQNLEKEEEDILKSLTNSETEMVQQTQSLRELISDLEHRLQGSVMELLQGVDGVIKRTENVTLKKPETFPKNQRRVFRAPDLKGMLEVFRELTDVRRYWVDVTVAPNNISCAVISEDKRQVSSPKPQIIYGARGTRYQGILGSQSITSGKHYWEVDVSKKTAWILGVCAGFQPDAMCNIEKNENYQPKYGYWVIGLEEGVKCSAFQDSSFHTPSVPFIVPLSVIICPDRVGVFLDYEACTVSFFNITNHGFLIYKFSHCSFSQPVFPYLNPRKCGVPMTLCSPSS [human TRIM5α, 9-codon deletion at 338] | 2.71 ± 2.8 |

± gives the standard deviation of the averaged measurements. Restriction of a single-cycle SIVsab GFP reporter by TRIM5α v1-loop variants in CRFK cells. Human variants: read share among cells still uninfected after two challenges over input, higher = gained restriction. Rhesus variants: share among infected cells over input, higher = lost restriction. Reporter dose not given per row. No active / inactive call per row; the paper calls a change when both replicates lie above its controls (mean + 2 SD of stop or wild-type variants, or the top frameshift score). Residues outside the varied loop are taken from Swiss-Prot. The paper reads the human single-substitution scores as noise; they and the rhesus combinations repeat poorly (rank correlation 0.3 to 0.4), indel scores repeat only for the top variants, rhesus substitutions well (0.9).
